Laboratory results from publication PMC12831199.
No constants are given. Whether binding was seen depends on the method and setting. In cells and extracts the contact can be indirect. Some binding calls cover weakened binding; strength is not graded here. Tags and fused reporters may be left off the sequences shown.

Protein sequences, listed by entry. Tags and fused reporters are not part of them.
UniProt P23201: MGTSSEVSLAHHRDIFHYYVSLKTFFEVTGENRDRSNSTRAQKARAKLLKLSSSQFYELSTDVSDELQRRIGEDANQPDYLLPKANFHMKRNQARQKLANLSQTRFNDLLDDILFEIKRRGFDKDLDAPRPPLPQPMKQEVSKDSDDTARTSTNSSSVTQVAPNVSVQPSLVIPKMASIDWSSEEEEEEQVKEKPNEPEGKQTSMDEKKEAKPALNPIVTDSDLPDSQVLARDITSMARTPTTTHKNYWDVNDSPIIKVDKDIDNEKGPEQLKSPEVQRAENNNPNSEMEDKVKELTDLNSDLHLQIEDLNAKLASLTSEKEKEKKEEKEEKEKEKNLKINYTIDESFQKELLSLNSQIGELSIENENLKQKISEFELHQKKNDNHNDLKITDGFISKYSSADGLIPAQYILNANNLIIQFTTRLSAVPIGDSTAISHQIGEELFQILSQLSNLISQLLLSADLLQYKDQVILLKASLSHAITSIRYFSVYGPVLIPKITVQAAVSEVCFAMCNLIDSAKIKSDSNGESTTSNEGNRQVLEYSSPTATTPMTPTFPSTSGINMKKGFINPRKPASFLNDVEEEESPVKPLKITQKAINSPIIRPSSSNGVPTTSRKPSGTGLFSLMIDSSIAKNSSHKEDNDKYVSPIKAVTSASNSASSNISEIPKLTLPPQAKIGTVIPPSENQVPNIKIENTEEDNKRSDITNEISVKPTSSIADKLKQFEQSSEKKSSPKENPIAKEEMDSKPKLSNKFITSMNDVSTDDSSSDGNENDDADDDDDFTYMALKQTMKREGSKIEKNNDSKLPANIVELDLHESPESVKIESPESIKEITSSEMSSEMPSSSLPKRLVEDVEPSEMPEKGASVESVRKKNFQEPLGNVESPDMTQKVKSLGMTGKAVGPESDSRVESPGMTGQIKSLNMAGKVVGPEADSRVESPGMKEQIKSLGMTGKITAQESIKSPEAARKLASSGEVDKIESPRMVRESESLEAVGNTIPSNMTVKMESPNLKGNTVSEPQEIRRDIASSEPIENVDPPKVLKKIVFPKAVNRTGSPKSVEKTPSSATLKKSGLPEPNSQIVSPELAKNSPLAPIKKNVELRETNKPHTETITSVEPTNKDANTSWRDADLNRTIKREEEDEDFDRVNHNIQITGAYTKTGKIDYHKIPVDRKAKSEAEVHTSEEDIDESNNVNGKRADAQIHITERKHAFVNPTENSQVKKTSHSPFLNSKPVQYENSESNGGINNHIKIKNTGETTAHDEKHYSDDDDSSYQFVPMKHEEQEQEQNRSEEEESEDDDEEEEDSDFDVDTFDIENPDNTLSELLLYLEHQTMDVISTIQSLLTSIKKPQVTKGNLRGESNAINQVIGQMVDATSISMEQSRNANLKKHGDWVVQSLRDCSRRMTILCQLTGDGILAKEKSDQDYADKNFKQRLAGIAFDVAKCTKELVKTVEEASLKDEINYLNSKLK

T1: Msb3CRU (Saccharomyces cerevisiae) (UniProt P48566)
T1 sequence: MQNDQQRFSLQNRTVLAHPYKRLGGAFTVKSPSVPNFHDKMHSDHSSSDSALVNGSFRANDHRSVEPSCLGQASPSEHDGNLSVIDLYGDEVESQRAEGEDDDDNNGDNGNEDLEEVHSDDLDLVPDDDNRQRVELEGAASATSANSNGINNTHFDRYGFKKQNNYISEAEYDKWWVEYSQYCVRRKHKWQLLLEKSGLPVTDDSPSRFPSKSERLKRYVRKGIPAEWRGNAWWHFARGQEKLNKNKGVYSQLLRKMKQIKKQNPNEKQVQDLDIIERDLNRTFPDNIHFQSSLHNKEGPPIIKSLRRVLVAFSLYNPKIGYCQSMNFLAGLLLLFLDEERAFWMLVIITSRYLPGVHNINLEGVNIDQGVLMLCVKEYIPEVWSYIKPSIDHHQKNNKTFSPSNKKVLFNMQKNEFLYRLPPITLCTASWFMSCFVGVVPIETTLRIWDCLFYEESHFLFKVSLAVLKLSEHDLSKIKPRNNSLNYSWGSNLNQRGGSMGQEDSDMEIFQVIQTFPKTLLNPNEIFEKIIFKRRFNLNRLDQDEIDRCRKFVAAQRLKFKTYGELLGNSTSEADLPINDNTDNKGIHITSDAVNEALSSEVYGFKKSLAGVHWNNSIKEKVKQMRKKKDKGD

T2: Msb4CRU (Saccharomyces cerevisiae) (UniProt Q12317)
T2 sequence: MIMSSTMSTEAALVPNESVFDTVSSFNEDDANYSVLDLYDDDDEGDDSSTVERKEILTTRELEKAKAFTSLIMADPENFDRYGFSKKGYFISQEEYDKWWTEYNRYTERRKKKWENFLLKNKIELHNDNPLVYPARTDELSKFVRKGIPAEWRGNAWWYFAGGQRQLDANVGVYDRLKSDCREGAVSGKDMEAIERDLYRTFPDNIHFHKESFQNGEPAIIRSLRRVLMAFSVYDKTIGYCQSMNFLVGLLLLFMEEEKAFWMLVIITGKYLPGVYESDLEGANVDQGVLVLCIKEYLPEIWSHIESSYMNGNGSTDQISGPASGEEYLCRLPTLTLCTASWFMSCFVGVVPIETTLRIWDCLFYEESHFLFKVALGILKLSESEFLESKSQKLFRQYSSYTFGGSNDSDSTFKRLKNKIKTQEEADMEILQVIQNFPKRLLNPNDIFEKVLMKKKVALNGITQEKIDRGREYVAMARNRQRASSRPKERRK

T3: Msb3_(Δ76-93)CRU (Saccharomyces cerevisiae) (UniProt P48566)
T3 sequence: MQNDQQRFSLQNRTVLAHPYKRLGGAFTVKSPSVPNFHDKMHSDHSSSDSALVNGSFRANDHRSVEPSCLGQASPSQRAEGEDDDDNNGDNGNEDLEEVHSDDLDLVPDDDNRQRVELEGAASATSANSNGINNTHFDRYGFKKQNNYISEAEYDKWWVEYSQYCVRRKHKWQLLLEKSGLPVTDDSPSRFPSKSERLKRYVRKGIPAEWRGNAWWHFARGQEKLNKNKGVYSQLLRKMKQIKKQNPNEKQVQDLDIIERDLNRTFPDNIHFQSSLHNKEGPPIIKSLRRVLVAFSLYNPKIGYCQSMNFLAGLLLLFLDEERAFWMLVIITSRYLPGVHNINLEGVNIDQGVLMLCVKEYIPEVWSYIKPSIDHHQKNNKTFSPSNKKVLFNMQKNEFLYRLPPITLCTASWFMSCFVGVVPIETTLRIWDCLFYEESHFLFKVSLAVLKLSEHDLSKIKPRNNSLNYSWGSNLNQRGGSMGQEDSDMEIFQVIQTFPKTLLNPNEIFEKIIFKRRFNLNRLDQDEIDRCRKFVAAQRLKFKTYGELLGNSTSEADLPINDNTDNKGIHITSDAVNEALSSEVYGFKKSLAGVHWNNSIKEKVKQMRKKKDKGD

T4: Msb4_(Δ27-44)CRU (Saccharomyces cerevisiae) (UniProt Q12317)
T4 sequence: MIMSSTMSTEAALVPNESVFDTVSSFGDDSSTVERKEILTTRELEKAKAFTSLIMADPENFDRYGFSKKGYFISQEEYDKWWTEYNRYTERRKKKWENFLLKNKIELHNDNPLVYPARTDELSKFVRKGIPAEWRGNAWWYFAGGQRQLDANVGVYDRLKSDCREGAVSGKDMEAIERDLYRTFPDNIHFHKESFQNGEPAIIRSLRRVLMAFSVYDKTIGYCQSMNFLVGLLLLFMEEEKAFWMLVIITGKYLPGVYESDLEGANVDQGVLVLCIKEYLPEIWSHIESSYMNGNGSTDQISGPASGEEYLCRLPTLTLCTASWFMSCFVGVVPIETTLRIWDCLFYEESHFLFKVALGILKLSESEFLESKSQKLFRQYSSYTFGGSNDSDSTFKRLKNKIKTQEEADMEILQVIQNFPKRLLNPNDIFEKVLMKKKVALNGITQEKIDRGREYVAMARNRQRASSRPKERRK


Key:
[1] = target: T1, Msb3CRU (Saccharomyces cerevisiae); assay: split reporter; small-scale Split-Ub: diploid cells co-expressing a Nub and a CRU fusion spotted in 10-fold serial dilutions from OD600=1 on SD medium with 5-FOA, 30°C, 2-5 days
[2] = target: T2, Msb4CRU (Saccharomyces cerevisiae); assay: split reporter; Split-Ub: four independent transformants each, directly transferred from selective medium onto 5-FOA medium (Fig. 1E)
[3] = target: T1, Msb3CRU (Saccharomyces cerevisiae); assay: as above
[4] = target: T3, Msb3_(Δ76-93)CRU (Saccharomyces cerevisiae); assay: as above
[5] = target: T4, Msb4_(Δ27-44)CRU (Saccharomyces cerevisiae); assay: as above

Row | binding [1] | binding [2] | binding [3] | binding [4] | binding [5] | Molecule
1 | binds | binds | binds |  |  | Nub–Spa2 (from UniProt P23201 1-1466)
2 |  | binds | binds | binds | binds | Nub–Sec4 (protein, UniProt P07560 1-215) MSGLRTVSASSGNGKSYDSIMKILLIGDSGVGKSCLLVRFVEDKFNPSFITTIGIDFKIKTVDINGKKVKLQLWDTAGQERFRTITTAYYRGAMGIILVYDVTDERTFTNIKQWFKTVNEHANDEAQLLLVGNKSDMETRVVTADQGEALAKELGIPFIESSAKNDDNVNEIFFTLAKLIQEKIDSNKLVGVGNGKEGNISINSGSGNSSKSNCC
